The campaign covered roughly 50,000 compounds. About 800 (1.6%) showed an effect of 50% or more. The list shows a part of the results.
What follows are compounds tested against Bcl-2-like protein 10 (Homo sapiens) (UniProt Q9HD36) (assay: TR3 peptide-Bcl-B binding displacers, biochemical primary FP assay, phenotype converters (AID 1240;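 also: 0% = Bcl-B with tracer peptide and DMSO and 100% = tracer peptide lacking Bcl-B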)). Conditions: GST-Bcl-B / FITC-TR3 peptide fluorescence polarization; stronger effect = higher value; compound at 3.75 mg/L.
Sequence of UniProt Q9HD36 (Q9HD36 whole entry, looked up): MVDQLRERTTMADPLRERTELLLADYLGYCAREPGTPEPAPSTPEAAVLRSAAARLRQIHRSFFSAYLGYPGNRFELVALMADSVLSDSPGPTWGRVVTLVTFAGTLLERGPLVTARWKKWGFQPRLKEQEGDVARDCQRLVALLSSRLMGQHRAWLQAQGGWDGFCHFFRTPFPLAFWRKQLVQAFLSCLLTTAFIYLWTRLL

Structure (SMILES)	displacement
Cc1ccnc(N/C=C/C(=O)c2ccc(Br)cc2)c1	23.3%
CC(=O)c1ccc(N2C(=O)C=CC2=O)cc1	-14.5%
O=C(COc1ccc(Cl)cc1)N1CCN(C(=O)c2cccnc2)CC1	0.4%
COc1cc(/C=C2\C(=O)NC(=O)N(c3cccc(Br)c3)C2=O)cc(Cl)c1O	4.4%
C=CCN(CP(C)(=O)OC(C)C)C(C)=O (centres undefined)	17.3%
O=C(/C=C\Nc1ccc2c(c1)OCO2)c1ccc(F)cc1	-2.4%
CCN(CC)c1ccc(/C=C2\C(=O)NC(=O)N(c3ccc(Br)c(C)c3)C2=O)o1	42.6%
CC1CCc2c(sc(NC(=O)c3cccc(Br)c3)c2C(N)=O)C1 (centres undefined)	-4.3%
CCOC(=O)c1cc2c3c(c1)C1C=CCC1C(c1ccc([N+](=O)[O-])cc1)N3CC1CC=CC21 (centres undefined)	5.7%
O=c1[nH]c(=S)[nH]c2sc3c(c12)CCc1ccccc1-3	-10.4%
CSc1nc2ccc(NC(=O)c3cccs3)cc2s1	-14.3%
Cc1cc(/C=N\Nc2ccc([N+](=O)[O-])cn2)c(C)n1-c1ccc(O)cc1	-0.4%
O=C(CC(c1ccccc1)c1ccccc1)N1CCN(c2ccccc2)CC1	-1.3%
COCCCNCCCCOc1c(C)cc(C)cc1C	7.3%
Cc1ccccc1NCC(=O)N/N=C\c1c(O)ccc2ccccc12	-8.9%
NC(=O)C(Cc1ccccc1)N1CC(=O)NC(=O)C1 (centres undefined)	2.2%
NC(=O)NC(Cc1ccccc1)c1ccccc1 (centres undefined)	7.2%
CCN1C(=O)/C(=C/c2ccc(C(C)(C)C)cc2)SC1=S	6.4%
CC(=O)C1=C(C)NC(=S)NC1c1cc([N+](=O)[O-])ccc1O (centres undefined)	18.9%
COc1ccc(S(=O)(=O)NNC(=O)C(=O)Nc2ccccn2)cc1	-6.4%
CCOc1ccc(C(=O)Nc2ccc3oc(-c4cccc(C)c4)nc3c2)cc1	24.1%
COc1ccc(C)cc1C(=O)CCC(=O)O	10.6%

Structure (SMILES)	displacement
CC1=CC(C)(C)Nc2ccc(OC(=O)c3ccc(Cl)c([N+](=O)[O-])c3)cc21	8.5%
COc1ccc(CC(=O)NNC(=O)c2ccco2)cc1OC	-9.6%
O=C1NC(=Nc2cccc(O)c2)S/C1=C/C(Cl)=C/c1ccc([N+](=O)[O-])cc1	4.1%
N#Cc1ccccc1NC(=O)c1ccc(-c2ccccc2)cc1	12.6%
CCOc1cc(C2C(C(=O)OC)=C(C)NC(C)=C2C(=O)OC)ccc1O	0.1%
O=C(Nc1cccc(O)c1)/C(=C\c1cccnc1)NC(=O)c1ccccc1	0.4%
CCCOC(=O)c1ccc(NC(=O)COc2ccc(OC)cc2)cc1	-3.1%
Cc1ccc(C2Nc3ccccc3NC3=C2C(=O)CC(c2ccc(Cl)cc2)C3)cc1 (centres undefined)	33.9%
CNC(=S)NC12CC3CC(CC(C3)C1)C2	15.4%
CCOc1ccccc1C(=O)NCc1ccco1	10.5%
O=C(NCc1ccco1)c1cc(-c2ccco2)nc2ccccc12	29.9%
O=C(Nc1ccc(O)c(-c2nc3ccccc3o2)c1)c1cc2ccccc2o1	-10.8%
COc1ccc(C2NC(=O)NC3=C2C(=O)N(Cc2ccccc2)C3)cc1 (centres undefined)	-11.1%
COc1ccc(/C=C(\NC(=O)c2ccccc2)C(=O)N/N=C/c2ccccn2)cc1	-13.2%
CCOC(=O)C(CCCCOc1cccc(OC)c1)C(=O)OCC	-10%
O=C(CC1S/C(=N\N=C\c2cccs2)NC1=O)Nc1ccc(Cl)cc1Cl (centres undefined)	9.6%
COc1cc(C(=O)N/C(=C/c2cccc([N+](=O)[O-])c2)C(=O)Nc2ccc(C)cc2)cc(OC)c1OC	-4%
COc1cccc(/C(C)=N/NC(=O)C2CC2)c1	0.4%
COc1ccc(/C=C2\C(=O)N(Cc3ccccc3)N=C2C)cc1	1.4%
COc1ccc(C2NC(=O)NC(C)=C2C(=O)OCc2ccccc2)cc1OC (centres undefined)	3.1%
COc1ccc(-n2nnnc2C(Cl)(Cl)c2nnnn2-c2ccc(OC)cc2)cc1	5.8%
O=C(NC(NC(=S)Nc1ccc(Cl)cc1Cl)C(Cl)(Cl)Cl)c1ccccc1F (centres undefined)	0.7%

Structure (SMILES)	displacement
O=C(O)c1ccc(N=C2SCC(=O)N2Cc2ccccc2)cc1	-10%
Cc1c(C=Nc2ccc(Br)cc2)c(O)n(C)c(=O)c1C#N	12.4%
Cc1c(NC(=O)COc2ccc(Cl)cc2Cl)cccc1[N+](=O)[O-]	-6%
CSC(=NSc1ccc([N+](=O)[O-])cc1)SC	-10.4%
COc1cc(CN2CCN(S(C)(=O)=O)CC2)cc(OC)c1OC	0%
Cc1ccccc1NC(=O)C(=O)NCc1cccnc1	10.2%
COC(=O)CN1C(=O)/C(=C\c2cccc([N+](=O)[O-])c2)SC1=S	5.7%
Cc1ccc(S(=O)(=O)CCc2nc3ccccc3o2)cc1	-7.8%
O=C(c1cc(-c2cccs2)nc2ccccc12)N1CCN(c2ccccc2)CC1	2.2%
Brc1ccc2ncnc(Nc3ccccc3)c2c1	-5.8%
O=C1N=c2ccccc2=C1c1cc(-c2ccccc2)oc1O	1%
CCc1cc(C)cc(OCCOc2ccc([N+](=O)[O-])cc2/C=C2/SC(=S)N(C)C2=O)c1	20.5%
Cc1cc(NNC(=O)c2ccccc2O)c2cccc(C)c2n1	1.8%
O=C(c1ccc(F)cc1)N1CCN(c2ccc(F)cc2)CC1	6.5%
CN(C)/C=N/S(=O)(=O)c1ccccc1	5.6%
COc1ccc(CCNC(=O)C(=O)N2CCCC2)cc1	-1.5%
O=C(Nc1ccc(Cc2ccncc2)cc1)c1cccs1	-2.9%
Cn1c2c(c(=O)n(C)c1=O)C(c1ccc(OC(=O)/C=C/c3ccc([N+](=O)[O-])cc3)cc1)C1=C(N2)c2ccccc2C1=O (centres undefined)	13.4%
CCN(CC)c1ccc(NC(=O)/C=C\C(=O)O)cc1	18.6%
CC(=O)/C=C/c1cccc[n+]1C	-4.4%
O=C(Nc1ccc(Cl)c(Cl)c1)c1cc(Br)ccc1Cl	13.8%
C/C=C/C=C(/NC(=O)c1ccccc1)C(=O)Nc1cccc(C)c1	-2.3%

Structure (SMILES)	displacement
CCCOc1ccc(/C=C2/C(=O)NN(c3ccccc3)C2=O)cc1OC	13%
O=C(Nc1ccc2nn(-c3ccc(F)cc3)nc2c1)c1ccc(Cl)c([N+](=O)[O-])c1	7.7%
COC(=O)c1ccc(N2C(=O)CC(N3CCC(O)CC3)C2=O)cc1 (centres undefined)	-6%
O=C(Nc1ccc2nc(SCc3ccccc3)sc2c1)c1ccccc1C(=O)N1CCOCC1	-3.4%
CCOC(=O)c1c(NC(=O)Cc2ccccc2)sc2c1CCCCC2	5.1%
Cc1ccc(NC(=O)c2ccco2)cc1NC(=O)c1ccccc1	10.8%
COC(=O)c1ccc(Cl)c(S(=O)(=O)N2CCOCC2)c1	-6.1%
Cc1cc(Br)ccc1NC(=O)c1ccco1	15.8%
COc1ccc(N2C(=O)NC(=O)/C(=C\c3cc(C)n(-c4ccc(N5CCOCC5)cc4)c3C)C2=O)cc1	15.9%
COc1ccc(C=C2C(=O)c3ccccc3C2=O)c(O)c1	18.4%
COc1ccc(CCNC(=O)COc2ccc(C)cc2C)cc1	1%
COc1cc(/C=C2/SC(=S)N(c3ccccc3)C2=O)ccc1OC(=O)c1ccc(Cl)cc1	11.8%
CC(=O)Nc1ccc(NS(=O)(=O)c2ccc(NC(C)=O)cc2)cc1	-5.4%
COc1ccc(/C=C/C(=O)Nc2ccc(N3CCCCC3)c(Cl)c2)cc1	-3.8%
O=C1C2C3C=CC(C3=C3CCCC3)C2C(=O)N1Cc1ccccc1 (centres undefined)	-11.8%
CN1C(=O)/C(=C\C2(C)N3CC4(C)CN2CC(C)(C3)C4=O)c2ccccc21 (centres undefined)	-6.5%
O=C(O)CCCCCN1C(=O)C(=O)/C(=C(/O)c2ccc(F)cc2)C1c1ccc(O)cc1 (centres undefined)	-7.8%
CC(=O)Nc1ccc(NC(=O)CN(c2ccc(C)cc2)S(C)(=O)=O)cc1	2.5%
O=C(NCCc1ccc(F)cc1)C(=O)NC1CCCCC1	5%
O=C(CSc1nc(O)cc(=O)[nH]1)N1c2ccccc2CCc2ccccc21	12.1%
O=C(Nc1ccc2c(c1)Cc1ccccc1-2)c1cc2ccccc2o1	134%
CCOC(=O)C1=C(CC)NC2=C(C(=O)CCC2)C1c1cc2c(cc1[N+](=O)[O-])OCO2 (centres undefined)	12.2%

Structure (SMILES)	displacement
O=C(CN(c1ccc(F)cc1)S(=O)(=O)c1ccccc1)N1CCCCCC1	-6.7%
CC(C)(C)c1cc(Br)ccc1OCC(=O)Nc1ccccc1C(F)(F)F	15.1%
COC(=O)c1ccc(NC(=O)CCC2CCCCC2)cc1	-5.7%
COC(=O)C1=C(C)NC(=O)CC1c1ccc(F)c(Br)c1 (centres undefined)	11.4%
O=C(Nc1ccccc1)c1cc(S(=O)(=O)NC2CCCCC2)ccc1Br	-10.5%
O=C1S/C(=C/c2ccccc2)C(=O)N1CC(=O)N1c2ccccc2Sc2ccc(Cl)cc21	13.1%
O=C(NC(=S)Nc1ccc2oc(-c3ccccc3)nc2c1)c1ccccc1Cl	17.8%
Cn1cnc([N+](=O)[O-])c1Sc1ncnc2c(C#N)c3n(c12)CCCCC3	-9.8%
COc1ccc(OC)c(NC(=O)CN(c2ccc(C)cc2)S(=O)(=O)c2ccc(OC)c(OC)c2)c1	9.4%
N#Cc1c(N)nc2c(c1-c1ccc(F)cc1)CCCCCC2	-5%
C/C(=N\N=C1\NC(=O)C(CC(=O)Nc2ccc(Cl)c(Cl)c2)S1)c1ccc(Cl)cc1 (centres undefined)	-2.7%
O=C(CC1OC(=O)c2ccccc21)c1ccc(I)cc1 (centres undefined)	-21.4%
CN(C)c1ccc(NC2=NC3(CCCCC3)N=C(N)N2)cc1	3.6%
N#Cc1c(N)n(-c2ccc(Br)cc2)c2nc3ccccc3nc12	11.9%
CCOc1c(C)cc2[nH]c(C)nc2c1C	-18.2%
COc1cc(Br)c(/C=C2\C(=O)N(c3ccc(S(N)(=O)=O)cc3)N=C2C)cc1OC	3%
O=C(N/N=C/c1cc([N+](=O)[O-])ccc1Cl)c1cc2ccccc2o1	-3.2%
N/C(=N\OC(=O)COc1cccc2ccccc12)c1cccc([N+](=O)[O-])c1	12.6%
COc1ccc(N2C(=O)/C(=C\c3ccc4ccccc4c3)SC2=S)cc1	3%
O=C(Oc1ccc(/C=N/NC(=O)C(O)c2ccccc2)cc1)c1ccccc1Cl (centres undefined)	2.7%
O=C(Nc1cccc(Cl)c1)Nc1nnc(Cc2ccc(Cl)cc2)s1	11.8%

Reference: PubChem BioAssay AID1240 (Sanford-Burnham Center for Chemical Genomics, 2008)
